From the supplement of paper PMC6135742
Where a name gives a salt, the structure may show the parent alone. ± gives the standard deviation of the averaged measurements. Over roughly 2,600 compounds, “MBP+ mature oligodendrocyte number relative to DMSO vehicle control” has its median near -0.34; the highest 2% begin near 13. The list shows a part of the results.

What follows are compounds tested on jimpy (Plp1 jimpy) mouse iPSC-derived oligodendrocyte progenitor cells (assay: MBP+ mature oligodendrocyte number relative to DMSO vehicle control (SDs above negative control mean); higher = more surviving jimpy oligodendrocytes (rescue)). Conditions: 10 µM; 3 days.
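Further: 10 µM single dose with 3-day oligodendrocyte differentiation.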

Row | Compound | MBP+ mature oligodendrocyte number
1 | N=C(NC(=O)c1nc(Cl)c(N)nc1N)Nc1ccccc1 [Phenamil methanesulfonate] | 0.681
2 | C#CC(N)CCC(=O)O (stereo not drawn) [gamma-Acetylinic GABA] | -0.158
3 | COc1c(C)c(C(=O)c2ccc(N)c(C(=O)O)c2)n2ccccc12 | 1.5
4 | NCCC[C@](N)(C(=O)O)C(F)F (racemic) [DL-alpha-Difluoromethylornithine hydrochloride] | -0.962
5 | c1ccc(NCc2ccc(CNc3ccccn3)cc2)nc1 | -1.17
6 | Cc1nnc(C(=O)NC(C)(C)c2nc(C(=O)NCc3ccc(F)cc3)c(O)c(=O)n2C)o1 [Raltegravir (MK-0518)] | 55.9
7 | C[C@@H]1C[C@H]2[C@@H]3C[C@H](F)C4=CC(=O)C=C[C@]4(C)[C@@]3(F)[C@@H](O)C[C@]2(C)[C@@]1(O)C(=O)CO [Flumethasone] | 8.94
8 | O=C(NC[C@H]1CN(c2ccc(N3CCOCC3=O)cc2)C(=O)O1)c1ccc(Cl)s1 [Rivaroxaban] | 3.6
9 | Cc1cc2c(cc1CC(=O)c1sccc1S(=O)(=O)Nc1onc(C)c1Cl)OCO2 [Sitaxentan sodium] | 1.61
10 | O=C(O)c1cn(-c2ccc(F)cc2)c2cc(N3CCNCC3)c(F)cc2c1=O [Sarafloxacin HCl] | 1.78
11 | CC[C@H](/C=C/[C@@H](C)[C@H]1CC[C@H]2[C@@H]3CC=C4C[C@@H](O)CC[C@]4(C)[C@H]3CC[C@]12C)C(C)C [Stigmasterol] | -1.84
12 | O=C(Nc1cccc(Cl)c1)c1ccccn1 | -1.72
13 | Clc1ccc(CCC(Cn2ccnc2)Sc2c(Cl)cccc2Cl)cc1 (stereo not drawn) [Butoconazole nitrate] | 12.2
14 | C[C@@]1(C(=O)Nc2ccc(F)nc2)CCCN1c1nc(Nc2cc(C3CC3)n[nH]2)c2cccn2n1 | < -6.7
15 | CN(C)C(=O)Nc1cccc(-c2ccc(N(C)C)cc2)c1 [Atglistatin] | 6.21
16 | N#Cc1ccc(C(c2ccc(C#N)cc2)n2cncn2)cc1 [Letrozole] | 3.69
17 | COc1c2occc2cc2ccc(=O)oc12 [Methoxsalen] | 0.343
18 | CN1CCN(C2=Nc3ccccc3Oc3ccc(Cl)cc32)CC1 [Loxapine Succinate] | -2.89
19 | CN1CCN(C2=Nc3ccccc3Oc3ccc(Cl)cc32)CC1 [Loxapine succinate] | -2.83
20 | CC(C)CC(N)=O [Isovaleramide] | 0.407
21 | Cn1cc(C(=O)OCC2CCN(CCNS(C)(=O)=O)CC2)c2ccccc21 | 3.57
22 | OC[C@@H](O)[C@@H](O)[C@H](O)[C@@H](O)CO [Sorbitol] | 0.395
23 | CNCC[C@H](Oc1ccc(C(F)(F)F)cc1)c1ccccc1 [S-(+)-Fluoxetine hydrochloride] | -4.1
24 | CC(=O)OCC(=O)[C@@]1(O)CC[C@H]2[C@@H]3CCC4=CC(=O)CC[C@]4(C)[C@H]3C(=O)C[C@@]21C [Cortisone acetate] | -0.164
25 | CC(=O)OCC(=O)[C@@]1(O)CC[C@H]2[C@@H]3CCC4=CC(=O)CC[C@]4(C)[C@H]3C(=O)C[C@@]21C [Cortisone 21-acetate] | -0.825

Row | Compound | MBP+ mature oligodendrocyte number
26 | O=C1c2ccccc2C(=O)c2c(NCCc3ccc(O)cc3)ccc(NCCc3ccc(O)cc3)c21 | -4.41
27 | FC(F)(F)c1ccc(/C=C/c2nc(COc3ccc(CCCCn4ccnn4)cc3)co2)cc1 [Mubritinib (TAK 165)] | -4.75
28 | O=C1c2c(O)cc(O)cc2OC(c2ccc(O)c(O)c2)C1O (stereo not drawn) [Taxifolin (Dihydroquercetin)] | 2.07
29 | CN(C)CCCOc1nn(Cc2ccccc2)c2ccccc12 [Benzydamine HCl] | -2.13
30 | CC(C)(O)CC[C@@H](O)[C@](C)(O)[C@H]1CC[C@@]2(O)C3=CC(=O)[C@@H]4C[C@@H](O)[C@@H](O)C[C@]4(C)[C@H]3CC[C@]12C [20-Hydroxyecdysone] | 1.23
31 | CNC(=O)c1nn(C)c2c1C(C)(C)Cc1cnc(Nc3ccc(N4CCN(C)CC4)cc3)nc1-2 | < -6.01
32 | CC1CCN=C(N)S1 (racemic) [(±)-AMT hydrochloride] | 0.0385
33 | C[C@H]1C[C@H]2[C@@H]3CCC4=CC(=O)C=C[C@]4(C)[C@@]3(Cl)[C@@H](O)C[C@]2(C)[C@@]1(O)C(=O)CO [Beclomethasone] | 2.83
34 | Oc1ccc(O)cc1 [Hydroquinone] | -4.36
35 | CN1CCN(c2cccc(Nc3nc4c(-c5ccc(S(C)(=O)=O)cc5)cccn4n3)c2)CC1 | < -6.01
36 | COc1cc2nc(N3CCN(C(=O)C4CCCO4)CC3)nc(N)c2cc1OC (stereo not drawn) [Terazosin HCl] | 1.42
37 | CN[C@@H](C)C(=O)N[C@H](C(=O)N1CCC[C@H]1C(=O)Nc1snnc1-c1ccccc1)C1CCCCC1 | -0.861
38 | Cc1nc(N=Nc2ccc(C(=O)O)cc2)c(COP(=O)(O)O)c(C=O)c1O | -1.07
39 | NS(=O)(=O)c1cc2c(cc1Cl)NCNS2(=O)=O [Hydrochlorothiazide] | 0.77 ± 0.73
40 | O=C(NC1CCOCC1)c1ccc(-c2cc(-c3c[nH]nc3-c3ccccn3)ccn2)cc1 | -1.09
41 | O=C1C(=O)N(Cc2ccc(Cl)c(Cl)c2)c2ccccc21 [Apoptosis Activator 2] | -4.34
42 | COc1cc(/C=C/C(=O)O)ccc1O [Ferulic Acid] | -0.0525
43 | C[N+]1(C)CCC(=C(c2ccccc2)c2ccccc2)CC1 [Diphemanil Methylsulfate] | 19.2
44 | CN(C)CCc1c[nH]c2ccc(C[C@H]3COC(=O)N3)cc12 [Zolmitriptan] | 1.69
45 | CN(C)CCC=C1c2ccccc2C=Cc2ccccc21 [Cyclobenzaprine hydrochloride] | -2.87
46 | O=C1c2cccc(O)c2C(=O)c2c(O)cc(CO)cc21 [Aloe-emodin] | 2.91
47 | O=c1[nH]c(=O)n([C@H]2C[C@H](O)[C@@H](CO)O2)cc1F [Floxuridine] | -1.72
48 | C/C(=N\NC(=S)N1CCC1)c1ccccn1 | < -6.35
49 | COc1cc(C)c(/C=C/C(C)=C/C=C/C(C)=C/C(=O)O)c(C)c1C [Acitretin] | 1.94
50 | CC(C)(F)C[C@H](N[C@@H](c1ccc(-c2ccc(S(C)(=O)=O)cc2)cc1)C(F)(F)F)C(=O)NC1(C#N)CC1 [Odanacatib (MK-0822)] | -0.415

Row | Compound | MBP+ mature oligodendrocyte number
51 | CC(=O)Oc1cc(C(C)C)c(OCCN(C)C)cc1C [Moxisylyte hydrochloride] | 0.382
52 | CC(c1cc2ccccc2s1)N(O)C(N)=O (stereo not drawn) [Zileuton] | -0.24
53 | C[C@@H]1C(=O)O[C@H]2C[C@@]34[C@H]5C[C@@H](C(C)(C)C)[C@]36[C@@H](OC(=O)[C@@H]6O)O[C@@]4(C(=O)O5)[C@]21O [Ginkgolide A] | -0.737
54 | CC1=C(C(=O)OC2CCCCC2)C(c2ccc([N+](=O)[O-])cc2)C2=C(CC(C)(C)CC2=O)N1 (stereo not drawn) | -4.64
55 | O=C(O)C(Cc1ccccc1[N+](=O)[O-])=NNc1nc(-c2ccc(Cl)c(Cl)c2)cs1 (mixture of isomers) | 2.19
56 | NC(=O)c1ncn([C@@H]2O[C@H](CO)[C@@H](O)[C@H]2O)c1N [Acadesine] | 2.68
57 | CC1=C(/C=C/C(C)=C/C=C/C(C)=C/C(=O)Nc2ccc(O)cc2)C(C)(C)CCC1 [Retinoic acid p-hydroxyanilide] | -4.36
58 | CCn1cc(C(=O)O)c(=O)c2cc(F)c(N3CCN(C)CC3)cc21 [Pefloxacin Mesylate] | 1.69
59 | CCOC(=O)c1ccc(N2NC(=O)C(=Cc3ccc([N+](=O)[O-])o3)C2=O)cc1 | -0.354
60 | CC#CCOC(=O)c1c(C)nc2sc3c(c2c1N)CCC(O)C3 (stereo not drawn) | -3.21
61 | COc1cc2c(cc1O)[C@@H](Cc1ccc(O)c(Oc3ccc(C[C@@H]4c5cc(OC)c(OC)cc5CCN4C)cc3)c1)N(C)CC2 [Daurisoline] | < -3.85
62 | C[C@@H]1CN(c2c(F)c(N)c3c(=O)c(C(=O)O)cn(C4CC4)c3c2F)C[C@H](C)N1 [Sparfloxacin] | -0.917
63 | Cn1c(=O)c2[nH]c(-c3ccc(S(=O)(=O)O)cc3)nc2n(C)c1=O [8-(p-Sulfophenyl)theophylline] | -0.119
64 | C[C@@H]1O[C@@H]1P(=O)(O)O [Phosphomycin disodium] | -0.284
65 | CC1(C)[C@@H](O[C@H]2O[C@H](C(=O)O)[C@@H](O)[C@H](O)[C@H]2O[C@@H]2O[C@H](C(=O)O)[C@@H](O)[C@H](O)[C@H]2O)CC[C@]2(C)[C@H]3C(=O)C=C4[C@@H]5C[C@@](C)(C(=O)O)CC[C@]5(C)CC[C@@]4(C)[C@]3(C)CC[C@@H]12 [Glycyrrhizic Acid] | -0.388
66 | CC1(C)[C@@H](O[C@H]2O[C@H](C(=O)O)[C@@H](O)[C@H](O)[C@H]2O[C@@H]2O[C@H](C(=O)O)[C@@H](O)[C@H](O)[C@H]2O)CC[C@]2(C)[C@H]3C(=O)C=C4[C@@H]5C[C@@](C)(C(=O)O)CC[C@]5(C)CC[C@@]4(C)[C@]3(C)CC[C@@H]12 [Ammonium Glycyrrhizinate] | -1.17
67 | COc1cc(NC(=O)c2ccc(-c3ccc(Cl)cc3)o2)cc(OC)c1 | 3.68
68 | c1ccc2c(Oc3nc(Nc4ccc(N5CCOCC5)cc4)c4ncn(C5CCCCC5)c4n3)cccc2c1 [Purmorphamine] | -5.53
69 | C[C@]12C=CC(=O)C=C1CC[C@@H]1[C@@H]2C(=O)C[C@@]2(C)[C@H]1CC[C@]2(O)C(=O)CO [Prednisone] | -1.19
70 | C[C@]12C=CC(=O)C=C1CC[C@@H]1C2=CC[C@]2(C)[C@@H](C(=O)CN3CCN(c4cc(N5CCCC5)nc(N5CCCC5)n4)CC3)CC[C@@H]12 | 2.86
71 | O=c1ccc2c(OCCCCc3ccccc3)c3ccoc3cc2o1 [Psora-4] | 1.65
72 | CCn1cc(C(=O)O)c(=O)c2cc(F)c(N3CCNC(C)C3)c(F)c21 (stereo not drawn) [Lomefloxacin HCl] | 0.619
73 | CCn1cc(C(=O)O)c(=O)c2cc(F)c(N3CCNC(C)C3)c(F)c21 (stereo not drawn) [Lomefloxacin hydrochloride] | -0.676
